Test results: PMC7819943, “Rice protein-binding microarrays: a tool to detect cis-acting elements near promoter regions in rice”
This is one part of the list.

These sequences were tested against T1, OsWOX13 (Oryza sativa, UniProt Q5QMM3 1-267) (assay: protein-binding microarray (RPBM); PBS, 2% BSA, 51.3 ng/ul salmon testes DNA, 50 uM zinc acetate, 200 nM TF, 25 C, 1 h; high values mean tight binding). Conditions: protein: recombinant; tags: N-terminal polyhistidine and DsRed monomer fusion (pET32a); label: CyDye5-dUTP incorporated in the synthesized complementary strand; 3' TTTTT single-stranded linker to array surface; dsDNA, one strand shown.
T1 sequence: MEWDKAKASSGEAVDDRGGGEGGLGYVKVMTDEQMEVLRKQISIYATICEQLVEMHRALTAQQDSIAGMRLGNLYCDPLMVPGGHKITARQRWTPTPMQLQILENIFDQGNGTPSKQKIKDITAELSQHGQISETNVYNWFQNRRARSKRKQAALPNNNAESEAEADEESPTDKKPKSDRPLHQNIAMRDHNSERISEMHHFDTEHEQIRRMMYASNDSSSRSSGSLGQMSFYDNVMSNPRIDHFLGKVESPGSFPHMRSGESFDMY
Method in brief: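 In PBS with 2% BSA, salmon testes DNA and 50 µM zinc acetate, 200 nM protein was incubated on a custom Agilent array at 25 °C for 1 h and then washed off. The array had been made double-stranded by primer extension with Cy5-dUTP and blocked with 2% BSA. The proteins were transcription factors fused N-terminally to polyhistidine and DsRed, expressed in E. coli BL21-CodonPlus and purified on Ni–NTA. The binding signal is per-feature fluorescence intensity (arbitrary units) from an Axon 4000B scanner.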
With “CCTTTCCTAGCCAATCAGCCACCTTCTCCCAAACCAGTACCGGAGTCACCTAGTGCAG” the binding signal was 4060 fluorescence intensity (a.u.). In the case of “GATAATTGTCGATTAACATTAGCACCAAGCTTATTGGTGTCGGAGTCACCTAGTGCAG”, the binding signal is reported as 40000 fluorescence intensity (a.u.). For “ACATAATATATTGATTGCCTTAAAAGATTACAGACTCTTTCGGAGTCACCTAGTGCAG”, the binding signal was 37200 fluorescence intensity (a.u.). In the case of “AATCACTTTCTACTGCTTATTGGTTTCTGCACGTTTCTTTCGGAGTCACCTAGTGCAG”, the binding signal is reported as 3170 fluorescence intensity (a.u.). For “CTCCATCACTGGATTGACCTCATATTTGGTTACAAGCAGCCGGAGTCACCTAGTGCAG”, the binding signal was 3260 fluorescence intensity (a.u.). With “ACTCCTATTATAGCTTAGATTAGATGCGCCACTTTCGGCACGGAGTCACCTAGTGCAG” the binding signal was 7220 fluorescence intensity (a.u.). For “AGTCCTAGTAATTAAATGTATACATGTTAGGCACGATGTTCGGAGTCACCTAGTGCAG”, the binding signal was 6250 fluorescence intensity (a.u.). For “TTTTATGATTTTCCAAAGAATTAATCTTTGAATGTGCCTTCGGAGTCACCTAGTGCAG”, the binding signal was 5250 fluorescence intensity (a.u.). In the case of “GATGAACATTGATTTGCTCGGATCTTGGATGCTGTTTGTGCGGAGTCACCTAGTGCAG”, the binding signal is reported as 20800 fluorescence intensity (a.u.). In the case of “TCAAGTTTGACTAAGTTTATTGATAAATATAGTAATATTTCGGAGTCACCTAGTGCAG”, the binding signal is reported as 3480 fluorescence intensity (a.u.). “GCAGAATAAACTTCGATTAACACTAAACAGTGCAGTGCATCGGAGTCACCTAGTGCAG” was tested, and the binding signal was 4350 fluorescence intensity (a.u.). In the case of “GAGTAGAGGTGGGAGGAAGCGGTGGTGTGGTGGGGTGGGGCGGAGTCACCTAGTGCAG”, the binding signal is reported as 4140 fluorescence intensity (a.u.). For “CGCTAAAGAAGACGCTAATTGCGATCGAGTTAACCCGGTGCGGAGTCACCTAGTGCAG”, the binding signal was 4160 fluorescence intensity (a.u.). With “GATGATTAAAGTTGGGCATGAAAGATCATGCCTTTATCCTCGGAGTCACCTAGTGCAG” the binding signal was 14600 fluorescence intensity (a.u.). For “GAGGCCTACCGGCCAATTAATTTAATCACATCTGTTAGTTCGGAGTCACCTAGTGCAG”, the binding signal was 3680 fluorescence intensity (a.u.). “TGAGATTGGATTTTCTGTCGACAGAGACTTAGCAATTCCGCGGAGTCACCTAGTGCAG” was tested, and the binding signal was 16300 fluorescence intensity (a.u.). In the case of “GGCCTAATTCATTGACGGGAACTAAGTGGGCTGAATTCGTCGGAGTCACCTAGTGCAG”, the binding signal is reported as 7250 fluorescence intensity (a.u.). For “CGTCTACCGTGATTGTTTCGATACAATTGTGTGCAAGTTACGGAGTCACCTAGTGCAG”, the binding signal was 21200 fluorescence intensity (a.u.). With “AATCCATTTGATGATTTGAGTAGTTGTCATAGCACAGGGCCGGAGTCACCTAGTGCAG” the binding signal was 6550 fluorescence intensity (a.u.). “TTTGATTAATCATACAATTCGTTGCGTTTTCTGCGCCGGACGGAGTCACCTAGTGCAG” was tested, and the binding signal was 52200 fluorescence intensity (a.u.). For “CCAACCAATTAATCCGCCATGGATGGATCATGGATGAACACGGAGTCACCTAGTGCAG”, the binding signal was 6480 fluorescence intensity (a.u.). With “TATGCTTAATTATCAAAACACATTACCGTCACATAAGTTGCGGAGTCACCTAGTGCAG” the binding signal was 15500 fluorescence intensity (a.u.). In the case of “CCAGATTTTGTGATGTGATCTGGAACTCGCCTGTTCGGTTCGGAGTCACCTAGTGCAG”, the binding signal is reported as 3500 fluorescence intensity (a.u.).
